Test results from the RNAGym collection of RNA variant scans (doi:10.7554/elife.90254).
Read counts are not given, so values of variants with three or more changes are uncertain.

B1: OR4K15 (parent)
chain: GUUAACGGUCAUAGGCCAUGGAAACUAGGAGCACCAUUUCGCUGCCAGUGAAGAAAUGAACAAAGAAAAUCUGGGCCAGGCAGGCAUCAAAAGAAAUAGUCUUGCGCUCAACCAGAAAGUCUGUAAUCAUUUUAAGGGUA

Variants of: B1
Assay: self-cleavage, relative activity (ratio to wild type); higher = more cleavage; in vitro, sequencing; the parent is a self-cleaving ribozyme
U2C U49A A59G A90G A91U showed a self-cleavage of 1.08.
Work on U2C U3A U9C A47G yielded a self-cleavage of 0.78.
For U2C A86G C101A, the self-cleavage was 0.17.
For U2C A56G A67G A111G C128U, the self-cleavage was 0.03.
For U3C A47G A55G, the self-cleavage was 0.61.
Work on U2C A23G A36G U103C yielded a self-cleavage of 0.4.
U2C A55U A67G gave a self-cleavage of 1.5.
U3C A47G U49C A59G A64G U122A gave a self-cleavage of 0.49.
In the case of U3C A11G A129G, the self-cleavage is reported as 1.39.
Variant U2A U26C U57A U72C U87C A91G A94G has a self-cleavage of 0.24.
Work on U2C A125G A135G yielded a self-cleavage of 0.69.
Work on U2C C17U U43C A60G A67G A89U U131C yielded a self-cleavage of 0.89.
Work on U2C U87C A98G A117G yielded a self-cleavage of 0.71.
Work on U2C A56G A67U U131C yielded a self-cleavage of 1.33.
In the case of U2A A114G U132C, the self-cleavage is reported as 0.2.
With U3A U43C A68G the self-cleavage was 1.06.
With U2C A27G U38C A59G A60G A90G the self-cleavage was 0.
Work on U2C U19C A54G U127C yielded a self-cleavage of 0.91.
In the case of U3C A66G A89U A110G, the self-cleavage is reported as 0.34.
U2C U38C U70C A91G U103A U122C showed a self-cleavage of 0.07.
U2C U9A A69U A126C showed a self-cleavage of 0.44.
Variant U2C A110U U132C has a self-cleavage of 0.82.
Work on U2C A18U A23G U43C A60G yielded a self-cleavage of 1.69.
Work on U2A U19A A125G yielded a self-cleavage of 0.57.
Variant U2C U39G A60G has a self-cleavage of 1.1.
For U2C U9C A59U A98G U132A, the self-cleavage was 0.16.
U2C A18U A60U A116U gave a self-cleavage of 0.51.
With U2C A55G A56G the self-cleavage was 1.14.
In the case of U2C U43C A96G, the self-cleavage is reported as 1.61.
For U2C U9A A52G U70C, the self-cleavage was 0.65.
U3C A22G A24G A116G gave a self-cleavage of 1.17.
Work on U2C A52G A59C U130C yielded a self-cleavage of 0.2.
U2C A23G A69G A90G showed a self-cleavage of 0.69.
For U2C U87C G93A, the self-cleavage was 1.5.
In the case of U2C U3C A60G G83A, the self-cleavage is reported as 1.03.
U3C A11G A56G U97C U122C A129G showed a self-cleavage of 0.55.
Work on U2C U9C A33U A68G A92G C112A yielded a self-cleavage of 0.06.
U2C A51G A55U U97A gave a self-cleavage of 1.2.
U2C A78U A116G showed a self-cleavage of 0.07.
With U2C A69G A98G the self-cleavage was 0.49.
In the case of U2C A18C A24G A60U A94G, the self-cleavage is reported as 1.15.
With U3C A36U A96G A116C the self-cleavage was 0.49.
Variant U2C A51G G74C A96G U108A has a self-cleavage of 0.06.
Work on U2C A59G A110G C112A yielded a self-cleavage of 0.03.
Variant U3C A22U A33G A111G has a self-cleavage of 0.08.
For U3A A5C A64G U87C A117G U130C, the self-cleavage was 1.13.
For U2C G31A A64C A94G, the self-cleavage was 1.
For U2C A54G A95G A111G, the self-cleavage was 0.04.
In the case of U2C U38C A60G U72C G75C, the self-cleavage is reported as 0.24.
U2C A24G A118U gave a self-cleavage of 0.24.
Work on U2C A64G A69G yielded a self-cleavage of 0.17.
In the case of U2C A18C A33U A52G A96G, the self-cleavage is reported as 1.61.
With U3C A18G A86G A110G U124C the self-cleavage was 0.07.
For U2A U19C A22G A23G A117G, the self-cleavage was 1.41.
With U2C A23G A51G A60G U103C the self-cleavage was 0.67.
Work on U2C U9C A22G A67G A68G U70C A135G yielded a self-cleavage of 0.91.
For U2C A33U A86G, the self-cleavage was 1.6.
With U3C A5G U9C A33U A129G the self-cleavage was 0.74.
Work on U2C A51G A56G A116G yielded a self-cleavage of 0.63.
In the case of U2G A51G A91G, the self-cleavage is reported as 0.77.
Work on U2C A51G U130C yielded a self-cleavage of 0.14.
Work on U2A C35U A59G U103C yielded a self-cleavage of 0.5.
With U2C U127G A134G the self-cleavage was 1.36.
U2C A69G A94G U120G gave a self-cleavage of 0.83.
U3A G20U G29A A47G A52G A92G A94U A98U showed a self-cleavage of 1.76.
Variant U2C U9A C34U A60G U87C U100A has a self-cleavage of 0.57.
For U2C U39C A60G A111G U139A, the self-cleavage was 0.02.
For U3C A11G A52U U87C, the self-cleavage was 1.18.
Variant U2A C16A C61A has a self-cleavage of 1.57.
Work on U2C A24G A91G yielded a self-cleavage of 0.86.
For U2C U3G U122C U132C, the self-cleavage was 0.47.
U2C A69G A92G A135G gave a self-cleavage of 1.12.
Work on U2C U39A A91G G138C yielded a self-cleavage of 0.74.
For U2C U38C A56G A90G, the self-cleavage was 1.42.
With U2C A51U C77U the self-cleavage was 1.36.
Variant U2C U9C C32U U43G A116G U130C has a self-cleavage of 0.35.
With U2C A13G A62U U139C the self-cleavage was 1.48.
For U2C U38C A117G, the self-cleavage was 0.94.
For U2C A59G A67G A95G A140G, the self-cleavage was 0.8.
Work on U2C A27G U102C yielded a self-cleavage of 1.02.
For U2C A11U A47G A90U A94G, the self-cleavage was 0.68.
Variant U2C A22G A54G U72A has a self-cleavage of 0.53.
Work on U3C A67G G75C A92G A96G U127C yielded a self-cleavage of 0.05.
U2C A51G U103C U132C gave a self-cleavage of 0.02.
In the case of U2C A11U A64G U103C A129G, the self-cleavage is reported as 0.48.
Work on U2C A5G A59G A67G G79A U103C C109G yielded a self-cleavage of 0.05.
For U3A A30G U100C, the self-cleavage was 0.69.
Work on U2C U37C A67U A114U yielded a self-cleavage of 0.56.
In the case of U2C U43G U87C, the self-cleavage is reported as 1.72.
U3A G44A A55G A68G showed a self-cleavage of 0.26.
In the case of U3C A22U U120G, the self-cleavage is reported as 1.61.
With U2C A24G A114U A118G the self-cleavage was 0.04.
For U2C A78U A117G, the self-cleavage was 0.28.
With U2C A78G A129G the self-cleavage was 0.24.
Work on U2C U57A U139C yielded a self-cleavage of 0.71.
Variant U2C A110G U122C U124C has a self-cleavage of 0.19.
U2C A64G A67U A82G U102C A111G showed a self-cleavage of 0.
U2C C42U C46U U49C U132C showed a self-cleavage of 0.48.
For U3A A33G A111G, the self-cleavage was 0.01.
Variant U2C A59U A91G U122C A140G has a self-cleavage of 0.
In the case of U2C U57A A96G A117G, the self-cleavage is reported as 1.4.
For U3C A59G A78U U131C, the self-cleavage was 0.64.
Variant U2G U9C A23G A95G U100C has a self-cleavage of 2.1.
U2C A13U A52G A68G A96G showed a self-cleavage of 0.49.
For U2A U3C G14A A30G C88U A116G, the self-cleavage was 0.52.
Variant U2C A27G A111G has a self-cleavage of 0.04.
Work on U2C U19A A52G G136A yielded a self-cleavage of 1.24.
Variant U2C C40U A110C has a self-cleavage of 0.14.
In the case of U2C U49C A67G A96G, the self-cleavage is reported as 1.4.
U2C U87C U102C showed a self-cleavage of 1.2.
In the case of U3C A5G U19C A59C A89G A94G U122C, the self-cleavage is reported as 0.39.
In the case of U2C A22G A33G A51G A63U A89G A111G A118G U132C, the self-cleavage is reported as 0.
With U2C U87C U131C the self-cleavage was 2.17.
Work on U2C U19C G115A yielded a self-cleavage of 0.
With U2C U100C C105U A111U U132C the self-cleavage was 0.02.
In the case of U2G A5G A18G A51U U70C G83U U108C A118G, the self-cleavage is reported as 0.03.
U2C A4U U37C U38C A67G U132A showed a self-cleavage of 1.15.
Work on U3C A30G A47G A86U U87C U132A yielded a self-cleavage of 0.92.
In the case of U2C A64U A111G U132C, the self-cleavage is reported as 0.01.
U2C C6U A64C U87C A94G gave a self-cleavage of 1.
U2C A27G U37C showed a self-cleavage of 1.34.
Work on U2A C46U A116G A126G yielded a self-cleavage of 0.26.
For U2C A60G A92G U133C, the self-cleavage was 1.2.
For U2C A27G A89U U100C, the self-cleavage was 1.8.
U3A A23G A24U U49C gave a self-cleavage of 0.66.
Variant U2C A47U A90G has a self-cleavage of 0.52.
For U2C G14A U70C, the self-cleavage was 0.79.
U2C A22C U38C U108A A125G showed a self-cleavage of 0.
U3A A11U A30G A94G A117U gave a self-cleavage of 0.64.
For U3A A54G A82G A92G U127A, the self-cleavage was 0.18.
For U3A C17U C35U, the self-cleavage was 1.18.
With U2C A30U U38C A66U U131C U139C the self-cleavage was 0.69.
With U2G A22G A30G U127C U132A the self-cleavage was 0.72.
In the case of U2C A92G U130C U132C, the self-cleavage is reported as 1.01.
U2C A47U U70A U139C showed a self-cleavage of 0.69.
For U2A U9C U19C A59G U108C G137A, the self-cleavage was 0.12.
Work on U2C A47U U49C U100A U122C yielded a self-cleavage of 0.1.
Work on U2C A23G A47G A67U yielded a self-cleavage of 1.34.
With U3C A52G A96G A98G the self-cleavage was 0.49.
Work on U2C A5G A23G A51U U103A yielded a self-cleavage of 0.64.
Work on U2C G58U A126U yielded a self-cleavage of 0.62.
For U3C A23G A94G, the self-cleavage was 2.37.
With U3C A68G U132C the self-cleavage was 1.07.
U2C A5G G14A U39A showed a self-cleavage of 0.8.
Work on U2C A110G A118G A125U yielded a self-cleavage of 0.17.
With U2C U3A A60U the self-cleavage was 0.75.
With U2C A13G A66U A68G A135G the self-cleavage was 0.5.
U2C A24G A60G showed a self-cleavage of 1.02.
In the case of U2C A4G A56G U57A U120A, the self-cleavage is reported as 0.57.
For U2C A24G A78G A92G, the self-cleavage was 0.25.
Variant U2C A33G A51G A52U A56G A118G has a self-cleavage of 0.4.
Variant U2C A30G A60G A68G U100C A118G A135G has a self-cleavage of 0.
U2C U103C A116G gave a self-cleavage of 0.14.
U2A U103C A110G showed a self-cleavage of 0.
U2C U103C A118G gave a self-cleavage of 0.62.
For U2C A18U A33G A36G U108C U130C, the self-cleavage was 0.01.
For U2C A13U A22G A111G U139C, the self-cleavage was 0.07.
U3C A24G A69G A117G G138A showed a self-cleavage of 1.45.
Work on U2C U38C U70C A95G A140G yielded a self-cleavage of 0.83.
U3C A24G A60U A64G A118G showed a self-cleavage of 0.59.
Work on U3A A60G A95G yielded a self-cleavage of 1.05.
With U2C A33G U102C the self-cleavage was 0.91.
In the case of U3C A5G U43C U57C A62G A68G, the self-cleavage is reported as 0.87.
Work on U2C A30U A94G yielded a self-cleavage of 0.92.
In the case of U2C A23G A36U A63U, the self-cleavage is reported as 0.55.
Variant U2C A24G A89G has a self-cleavage of 1.49.
Work on U3C A13U U38C A64G U120C yielded a self-cleavage of 1.13.
